Among the data in publication PMC4242493 are binding signal (normalized occupancy) values, retold here.

Some of the results follow. The list includes weakly bound sequences.

For this assay, the target named is MaxL homodimer (UniProt P61244). Description: universal protein-binding microarray (PBM). The conditions noted are these: PBS-based mixture, 10 nM His-tagged protein dimer, 2% milk, 200 ng/uL BSA, 50 ng/uL salmon testes DNA, 0.02% TX-100; detection with Alexa 488 anti-His …; high values mean tight binding; most listed sequences are background and not binding sites; double strand, one strand shown.
Chain of UniProt P61244 (P61244 whole entry): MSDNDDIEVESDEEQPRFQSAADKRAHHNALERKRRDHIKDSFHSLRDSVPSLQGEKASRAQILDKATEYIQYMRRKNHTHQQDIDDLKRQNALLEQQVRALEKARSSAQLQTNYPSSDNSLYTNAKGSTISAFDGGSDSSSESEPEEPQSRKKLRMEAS
On to CAACCACA, for which the binding signal (normalized occupancy) amounted to 0.0806.

Consider CGCGTGGC, for which the binding signal (normalized occupancy) is 0.154.

For the sequence GAGCTGGC, the binding signal (normalized occupancy) amounted to 0.0702.

In the case of CGTATCTC, the binding signal (normalized occupancy) was 0.073.

For ATGCTATG, the binding signal (normalized occupancy) worked out at 0.0837.

Regarding GGTGGGCA, the binding signal (normalized occupancy) came out at 0.0841.

Regarding AGCAAAGG, the binding signal (normalized occupancy) worked out at 0.0691.

Consider CCGATTAG, for which the binding signal (normalized occupancy) came to 0.0723.

On to CCTCGTTA, for which the binding signal (normalized occupancy) is 0.0752.

On to CCCTGTCC, for which the binding signal (normalized occupancy) amounted to 0.0739.

GTTGTACA: the binding signal (normalized occupancy) came to 0.0782.

TGTGAGAA: the binding signal (normalized occupancy) was determined as 0.0813.

AAGGCACC: the binding signal (normalized occupancy) came out at 0.0717.

On to ATAGATTC, for which the binding signal (normalized occupancy) came out at 0.0881.

As to ATTTGGGA, the binding signal (normalized occupancy) amounted to 0.0732.

Take CAGGCTGC: the binding signal (normalized occupancy) worked out at 0.0731.

On to CCGCAGAA, for which the binding signal (normalized occupancy) came to 0.0655.

As for CGGATCCC, the binding signal (normalized occupancy) is 0.0737.

As for GCCCATTA, the binding signal (normalized occupancy) was 0.0749.

For GGAGACTA, the binding signal (normalized occupancy) was 0.0726.

For the sequence AAGAGGAG, the binding signal (normalized occupancy) came to 0.0702.

Regarding CCATGGGC, the binding signal (normalized occupancy) was determined as 0.0785.

ATTATGTG: the binding signal (normalized occupancy) worked out at 0.0836.

Take CCCCGTTA: the binding signal (normalized occupancy) stood at 0.0766.

Take GGGCGACA: the binding signal (normalized occupancy) came to 0.0769.

As for CCGGGCCA, the binding signal (normalized occupancy) stood at 0.0671.

For the sequence ACAGCTAT, the binding signal (normalized occupancy) stood at 0.0762.

GATTAACC: the binding signal (normalized occupancy) is 0.075.

For ATAATTGA, the binding signal (normalized occupancy) amounted to 0.0797.

On to ATAATAAA, for which the binding signal (normalized occupancy) came to 0.076.

For the sequence CTGCTCGA, the binding signal (normalized occupancy) was determined as 0.071.

For CACAATCA, the binding signal (normalized occupancy) was determined as 0.0806.

In the case of ACGGCAGG, the binding signal (normalized occupancy) turned out to be 0.0676.

As to GCATGAGC, the binding signal (normalized occupancy) is 0.0948.

As to ATCATCCA, the binding signal (normalized occupancy) came to 0.086.

As to CGTTCCCC, the binding signal (normalized occupancy) was determined as 0.0749.

Take AGATCCCC: the binding signal (normalized occupancy) came out at 0.0832.

Regarding AGAGATTA, the binding signal (normalized occupancy) stood at 0.0751.

With CAGGGATG, the binding signal (normalized occupancy) came out at 0.0827.

With CCATCAAA, the binding signal (normalized occupancy) turned out to be 0.0773.

As for GCGTCTAC, the binding signal (normalized occupancy) turned out to be 0.0694.

As for CAAGTCTG, the binding signal (normalized occupancy) turned out to be 0.073.

Turning to AGAAGGCT, the binding signal (normalized occupancy) was 0.0711.

In the case of AAAAAATT, the binding signal (normalized occupancy) came to 0.0746.

As to CCGGTTCG, the binding signal (normalized occupancy) was determined as 0.073.

As for TCAGAGAA, the binding signal (normalized occupancy) was 0.073.

In the case of CCGACTTC, the binding signal (normalized occupancy) worked out at 0.067.

With GATGTCCA, the binding signal (normalized occupancy) was 0.0757.

With CATATCAC, the binding signal (normalized occupancy) is 0.0882.

As for AATTACCA, the binding signal (normalized occupancy) stood at 0.0786.

Consider CTGTACCA, for which the binding signal (normalized occupancy) came out at 0.0765.

For GGCCAGCA, the binding signal (normalized occupancy) amounted to 0.0747.

Regarding CAAACGCC, the binding signal (normalized occupancy) was found to be 0.0722.

Turning to CCCTGACA, the binding signal (normalized occupancy) turned out to be 0.0822.

AAGTTGGC: the binding signal (normalized occupancy) stood at 0.0715.

Consider GCCGGGGA, for which the binding signal (normalized occupancy) is 0.073.

As to AGTCAAGA, the binding signal (normalized occupancy) is 0.0758.

In the case of CGCGTCAG, the binding signal (normalized occupancy) stood at 0.0721.

On to TAAATGAA, for which the binding signal (normalized occupancy) came to 0.077.

In the case of CTCGGCAA, the binding signal (normalized occupancy) worked out at 0.0681.

Regarding TAGAGACA, the binding signal (normalized occupancy) came out at 0.0726.

Take AGCGCCCT: the binding signal (normalized occupancy) amounted to 0.0671.

Consider ATAGTCTG, for which the binding signal (normalized occupancy) was 0.0754.

Turning to ATCGTGCG, the binding signal (normalized occupancy) was 0.0851.

For CGCCCTGA, the binding signal (normalized occupancy) was determined as 0.0711.

CATCCGTA: the binding signal (normalized occupancy) was found to be 0.0744.

As for CCAAGACA, the binding signal (normalized occupancy) was 0.0796.

In the case of CATCACTA, the binding signal (normalized occupancy) was 0.0774.

AACATGCG: the binding signal (normalized occupancy) was 0.101.

Turning to GTTTCGGA, the binding signal (normalized occupancy) came to 0.0744.

Regarding AGCTACTG, the binding signal (normalized occupancy) is 0.0691.

For the sequence CATACGTA, the binding signal (normalized occupancy) was determined as 0.0844.

As to GTAAAACA, the binding signal (normalized occupancy) worked out at 0.0763.

With CCCACGAA, the binding signal (normalized occupancy) was 0.0758.

As for TATTATCA, the binding signal (normalized occupancy) stood at 0.0857.

As to AGATGCGG, the binding signal (normalized occupancy) came to 0.0753.

Consider AGCGAGGA, for which the binding signal (normalized occupancy) worked out at 0.0736.

Consider CGGCGAAG, for which the binding signal (normalized occupancy) was 0.0671.

For TAAACACA, the binding signal (normalized occupancy) is 0.0817.

As for CGAGGAGA, the binding signal (normalized occupancy) stood at 0.0753.

For the sequence CATTCGCC, the binding signal (normalized occupancy) came out at 0.0752.

Take TAGCTGCA: the binding signal (normalized occupancy) is 0.0763.

For the sequence ATCGGAGA, the binding signal (normalized occupancy) is 0.0709.

For the sequence CAGTCATC, the binding signal (normalized occupancy) is 0.0718.

As to ATGACCTG, the binding signal (normalized occupancy) was determined as 0.0798.

As for CACATTGA, the binding signal (normalized occupancy) was 0.0932.

For CCCTGTAG, the binding signal (normalized occupancy) was 0.0763.

ACCAGAAG: the binding signal (normalized occupancy) is 0.0788.

CCCGACCA: the binding signal (normalized occupancy) came to 0.0752.

Consider CAGCCAGG, for which the binding signal (normalized occupancy) was determined as 0.0778.

As to TATCAACA, the binding signal (normalized occupancy) turned out to be 0.0868.

As to ATCCGTAC, the binding signal (normalized occupancy) is 0.0728.

Take CGGTTAGC: the binding signal (normalized occupancy) was 0.0682.

TCAAGTAA: the binding signal (normalized occupancy) was found to be 0.0775.

On to AATGTCGT, for which the binding signal (normalized occupancy) came out at 0.0786.

AACTTACG: the binding signal (normalized occupancy) stood at 0.0727.

As for ACTATTCG, the binding signal (normalized occupancy) came to 0.0759.

For the sequence AGGATCGC, the binding signal (normalized occupancy) is 0.0781.

As for CGCCACGA, the binding signal (normalized occupancy) stood at 0.0799.

CGAGCTTA: the binding signal (normalized occupancy) is 0.0713.

As to CCAGTGGC, the binding signal (normalized occupancy) turned out to be 0.069.

For the sequence AAACGCCT, the binding signal (normalized occupancy) amounted to 0.073.

Regarding AAGTGACT, the binding signal (normalized occupancy) worked out at 0.0735.

As for ATGGCAAA, the binding signal (normalized occupancy) stood at 0.0762.

With CGCTTATC, the binding signal (normalized occupancy) is 0.0755.

Consider GTGCCGTA, for which the binding signal (normalized occupancy) came to 0.0787.

Turning to ATCGAGTC, the binding signal (normalized occupancy) was determined as 0.0722.

ACCGGAAC: the binding signal (normalized occupancy) was 0.0673.

As for CGTGCATA, the binding signal (normalized occupancy) was 0.0922.
